The results in this text go back to PubChem BioAssay AID1745853 (National Center for Advancing Translational Sciences (NCATS), 2022).

What all share (assay): Primary Screen for Target Class Profiling of Small Molecule Inhibitors of Methyltransferases
Assay [1] concerns the target Glycine N-methyltransferase (Homo sapiens) (UniProt Q14749). The settings on record: purified enzyme, MTase-Glo SAH luminescence; measured here: GNMT inhibition; at 40 µM; stronger effect = lower value. Summed up:
(§1)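 Each enzyme was reacted with SAM and its substrate, with compounds tested once at 40 uM; SAH formed was read by MTase-Glo luminescence.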

Assay [2] addresses Guanidinoacetate N-methyltransferase (Homo sapiens) (UniProt Q14353). The settings on record: purified enzyme, MTase-Glo SAH luminescence; measured here: GAMT inhibition; at 40 µM; stronger effect = lower value. Summed up:
as §1

The target in assay [3] is Histamine N-methyltransferase (Homo sapiens) (UniProt P50135). The settings on record: purified enzyme, MTase-Glo SAH luminescence; measured here: HNMT inhibition; at 40 µM; stronger effect = lower value. Summed up: as §1
Assay [4] deals with Nicotinamide N-methyltransferase (Homo sapiens) (UniProt P40261). Conditions: purified enzyme, MTase-Glo SAH luminescence; measured here: NNMT inhibition; at 40 µM; stronger effect = lower value. In outline: as §1
Assay [5] addresses Phenylethanolamine N-methyltransferase (Homo sapiens) (UniProt P11086). Conditions: purified enzyme, MTase-Glo SAH luminescence; measured here: PNMT inhibition; at 40 µM; stronger effect = lower value. In outline:
as §1

Some of the results follow. Further columns of the screen follow, without active or inactive calls.
% is set by controls: 0 for no effect and ±100 for the full control effect.

Regarding `CN1C(=O)c2cc3ccccc3n2CC1(C)C(=O)NCC(=O)NCc1cccc(F)c1` (stereo unspecified), the activity change, negative = inhibition was -5.37% in assay [1]; 3.41% in assay [2]; -4.47% in assay [3]; 4.37% in assay [4]; -2.93% in assay [5].

As for `OCC1(CCCc2ccccc2)CCCNC1` (stereo unspecified), the activity change, negative = inhibition is -6.59% in assay [1]; -9.08% in assay [2]; -6.5% in assay [3]; -9.92% in assay [4]; -17.5% in assay [5].

Regarding `COc1cccc(CN2CCCC3(CNc4ccccc4[S+](=O)([O-])N3)C2)c1` (stereo unspecified), the activity change, negative = inhibition is -67.8% in assay [1]; -9.03% in assay [2]; -5.74% in assay [3]; -18.8% in assay [4]; -12.6% in assay [5].

Consider `COc1ccc(N2C(=O)c3c(NC(C)=O)c4cc(F)ccc4n3CC2(C)C(=O)NC2CCCC2)cc1` (stereo unspecified), for which the activity change, negative = inhibition in assay [1] is -2.54%; in assay [2] it was 1.04%; in assay [3] it was 4.51%; in assay [4] it was 7.06%; in assay [5], 1.32%.

For `CN(CC(=O)NCc1ccccc1)S(=O)(=O)c1ccc2[nH]c3c(c2c1)CCCC3`, the activity change, negative = inhibition is 4.42% in assay [1]; 1.29% in assay [2]; 5.34% in assay [3]; -2.9% in assay [4]; 2.99% in assay [5].

With `CCCNC(=O)CCn1ccc2cc(S(=O)(=O)N3CCCC3)ccc21`, the activity change, negative = inhibition was 4.95% in assay [1]; 1.39% in assay [2]; 6.97% in assay [3]; 5.84% in assay [4]; 4.19% in assay [5].

Regarding `C=C1C[C@H](O)[C@@H](O)[C@@]2(C)C1[C@@H](O)[C@H]1OC(=O)C3[C@@H](C)[C@@H](O)[C@H](O)C2[C@]31C` (stereo partly specified), the activity change, negative = inhibition was 4.3% in assay [1]; 2.81% in assay [2]; 12.9% in assay [3]; -10.3% in assay [4]; -5.39% in assay [5].

Consider `CSc1ccc(-c2ccc3c(c2)C(=O)N2CCN(C(=O)CCC(=O)O)C[C@@H]2C(=O)N3)cc1`, for which the activity change, negative = inhibition in assay [1] was -3.15%; in assay [2] it was -0.429%; in assay [3], 0.487%; in assay [4], 0.766%; in assay [5] it was 4.97%.

Consider `O[C@]1(c2ccccc2)CCN(Cc2ccncc2)C[C@H]1N1CCCC1`, for which the activity change, negative = inhibition in assay [1] is -15%; in assay [2], -9.74%; in assay [3], -14.1%; in assay [4], -13.8%; in assay [5] it was -6.79%.

As for `O=C(Nc1ccc(Cl)cc1)c1ccccc1NCc1ccncc1`, the activity change, negative = inhibition in assay [1] was -0.165%; in assay [2], 1.59%; in assay [3], 6.1%; in assay [4], -16.7%; in assay [5], 1.01%.

For `CCOc1ccc(-c2cc3n(n2)CC(C)(C(=O)NCCC(C)C)N(Cc2ccc(OC)cc2)C3=O)cc1` (stereo unspecified), the activity change, negative = inhibition was 1.43% in assay [1]; 3.19% in assay [2]; -3.67% in assay [3]; -0.478% in assay [4]; -12.5% in assay [5].

Take `C[C@@H]1C(=O)O[C@H]2[C@@H](O)C34[C@H]5C[C@@H](C(C)(C)C)C36[C@@H](OC(=O)[C@@H]6O)O[C@@]4(C(=O)O5)[C@@]12O` (stereo partly specified): the activity change, negative = inhibition in assay [1] is -5.17%; in assay [3], -1.53%.

Take `COc1c(O[C@@H]2O[C@H](CO)[C@@H](O)[C@H](O)[C@H]2O)c(CCC(=O)O)cc2ccoc12`: the activity change, negative = inhibition in assay [1] stood at 24%; in assay [2], 41%; in assay [3], 20.2%; in assay [4], 25.9%; in assay [5], 8%.

In the case of `CN1C(=O)c2cc(C(=O)NCCc3ccc(Cl)cc3)nn2CC1(C)C(=O)NC1CCCCC1` (stereo unspecified), the activity change, negative = inhibition worked out at 5.14% in assay [1]; 0% in assay [2]; 5.4% in assay [3]; 8.69% in assay [4]; 5.11% in assay [5].

As to `CC(C)C1(O)C=C2C(=O)CC3C(C)(C(=O)O)CCCC3(C)C2CC1` (stereo unspecified), the activity change, negative = inhibition in assay [1] was 0.179%; in assay [2], -0.72%; in assay [3] it was 11.9%; in assay [4], -12.3%; in assay [5] it was -9.29%.

On to `CC(C)NC(=O)c1ccc2c(=O)n(C(C)C)c3n[nH]c(=O)n3c2c1`, for which the activity change, negative = inhibition is -1.66% in assay [1]; 3.27% in assay [2]; 2.62% in assay [3]; 10.5% in assay [4]; -3.61% in assay [5].

For the molecule `C=CCN(C(=O)Cn1c(=O)oc2cc(S(=O)(=O)N3CCCC3)ccc21)c1ccccc1`, the activity change, negative = inhibition in assay [1] was -1.41%; in assay [2], 7.45%; in assay [3] it was -3.23%; in assay [4] it was 4.05%; in assay [5] it was -6.32%.

As to `C#C[C@]1(OC(C)=O)CC[C@H]2[C@@H]3CCC4=C[C@@H](OC(C)=O)CC[C@@H]4[C@H]3CC[C@@]21C`, the activity change, negative = inhibition in assay [1] was -5.53%; in assay [2] it was -18.7%; in assay [3], 8.84%; in assay [4], -18.9%; in assay [5], -0.556%.

As for `CC(C)[C@H](C(=O)Nc1ccc(C(=O)NO)cc1)c1ccccc1`, the activity change, negative = inhibition was -3.91% in assay [1], 9.02% in assay [3], -23.5% in assay [4] and -13.5% in assay [5].

For the molecule `Cc1ccc(CNC(=O)CCc2nnc3n(CCCOC(C)C)c(=O)c4ccccc4n23)cc1`, the activity change, negative = inhibition was -7.58% in assay [1]; -3.69% in assay [2]; -2.72% in assay [3]; 0.064% in assay [4]; -8.9% in assay [5].

Turning to `CN1C(=O)c2cc(C(=O)NC3CCCC3)nn2CC1(C)C(=O)NC1CCCCCC1` (stereo unspecified), the activity change, negative = inhibition was 6.07% in assay [1]; 0% in assay [2]; 5.96% in assay [3]; 11.1% in assay [4]; 3.41% in assay [5].

For the molecule `CC1(C)C[C@H]2C=C(C=O)[C@]3(C(=O)O)C[C@]3(C)[C@H]2C1`, the activity change, negative = inhibition was -8.82% in assay [1]; -9.45% in assay [2]; -1.54% in assay [3]; -21% in assay [4]; -17.9% in assay [5].

Regarding `CC(C)CS(=O)(=O)N[C@H](C)c1onc(-c2ccc(F)cc2)c1C(=O)O`, the activity change, negative = inhibition in assay [1] is -0.477%; in assay [2], -2.11%; in assay [3], 1.41%; in assay [4], -1.73%; in assay [5] it was 0.554%.

Take `CC(C)CCn1c(=O)c2ccc(C(=O)NCC(C)C)cc2n2c(=O)n(CC(=O)Nc3ccccc3)nc12`: the activity change, negative = inhibition in assay [1] was 1.22%; in assay [2], 0%; in assay [3] it was 7.66%; in assay [4] it was -3.6%; in assay [5], 2.93%.

`CC(C)CCNC(=O)C1(C)Cn2c(ccc2-c2ccco2)C(=O)N1Cc1ccccc1` (stereo unspecified): the activity change, negative = inhibition in assay [1] is -8.55%; in assay [2], 0.999%; in assay [3], -4.15%; in assay [4] it was -8.05%; in assay [5] it was -5.8%.

`Oc1cc(-c2nc(-c3ccccc3)[nH]c2-c2ccncc2)ccc1Cl`: the activity change, negative = inhibition in assay [1] was -24.1%; in assay [2], -8.31%; in assay [3], -17.1%; in assay [4] it was -42.7%; in assay [5], -17.2%.

As to `CC(C)Cn1c(=O)c2ccccc2n2c(CCC(=O)NC(C)c3ccccc3)nnc12` (stereo unspecified), the activity change, negative = inhibition in assay [1] was determined as 2.38%; in assay [2], 1.41%; in assay [3], 8.58%; in assay [4] it was 7.18%; in assay [5], 2.03%.

`COc1ccc(-c2nnc3n(Cc4ccc(C)cc4)c(=O)c4ccccc4n23)c(O)c1`: the activity change, negative = inhibition in assay [1] is -18%; in assay [2], -2.42%; in assay [3], -0.11%; in assay [4] it was -8.89%; in assay [5] it was -11.5%.

On to `COc1cccc(C2c3cccn3-c3sc4c(c3CN2C(=O)Nc2ccccc2C)CCCC4)c1` (stereo unspecified), for which the activity change, negative = inhibition in assay [1] was 1.38%; in assay [2] it was 0.598%; in assay [3] it was 1.4%; in assay [4], -1.81%; in assay [5] it was 5.97%.

`COc1ccc([C@H]2C[C@@H](O)[C@@H](O)[C@@H]2NC(=O)C(C)C)cc1`: the activity change, negative = inhibition is 0.251% in assay [1]; 0.738% in assay [2]; 3.22% in assay [3]; -4.67% in assay [4]; -0.037% in assay [5].

`CCc1cc(CC[C@]2(C3CCCC3)CC(O)=C(Cc3nc4nc(C)cc(C)n4n3)C(=O)O2)cc(CC)n1`: the activity change, negative = inhibition in assay [1] was 7.17%; in assay [2] it was -0.627%; in assay [3], 7.55%; in assay [4], -20.7%; in assay [5], -2.88%.

On to `Cc1ccc(-n2cc(CN3CCN4CCCC4C3)c(-c3cccc(C)c3)n2)cc1` (stereo unspecified), for which the activity change, negative = inhibition in assay [1] was -9.1%; in assay [2], -7.22%; in assay [3] it was -22.8%; in assay [4], -5.89%; in assay [5], 7.94%.

With `COc1ccc(CCN2C(=O)c3cc4occc4n3CC2(C)C(=O)NC2CCC(C)CC2)c(OC)c1` (stereo unspecified), the activity change, negative = inhibition in assay [1] is -11.6%; in assay [2] it was 4.2%; in assay [3] it was -6.48%; in assay [4], -13.2%; in assay [5], -5.64%.

On to `Nc1[nH]nc2nc3ccccc3nc12`, for which the activity change, negative = inhibition was 3.33% in assay [2], -17% in assay [4] and -4.85% in assay [5].

`COc1ccc(CCNc2ncnc3c2CN(c2ccc(C)cc2)C(=O)CN3C)cc1`: the activity change, negative = inhibition in assay [1] was -28.4%; in assay [2], -6.14%; in assay [3], -3.81%; in assay [4], -29.6%; in assay [5], -11.8%.

For `O=c1[nH]c2cccc(N3CCN(Cc4ccc(-c5ccccc5)cc4)CC3)c2o1`, the activity change, negative = inhibition is -2.12% in assay [1]; -6.91% in assay [2]; 6.56% in assay [3]; -32.9% in assay [4]; -10.6% in assay [5].

As to `CN(C)C(CCOc1cccc2ccccc12)c1ccccc1` (stereo unspecified), the activity change, negative = inhibition is 0.195% in assay [1] and -18% in assay [3].

Consider `CC(C)CNC(=O)CN1CCOc2c(O)cc(-c3cccc(Cl)c3)cc2C1`, for which the activity change, negative = inhibition in assay [1] was -12.1%; in assay [2], -5.65%; in assay [3] it was -16.6%; in assay [4], -19%; in assay [5], -1.04%.

With `C=C1C(=O)O[C@@H]2C3=C(C)CCC[C@]3(C)CC[C@@]12O`, the activity change, negative = inhibition in assay [1] is 4.09%; in assay [2] it was 6.01%; in assay [3], 13%; in assay [4] it was -9.78%; in assay [5] it was 6.44%.
